PubChem BioAssay AID540317 (National Center for Advancing Translational Sciences (NCATS), 2011)
Several values for one entry are separate records, joined by “and”; a condition that tells them apart may be missing. Equal values may be shown once. The campaign covered roughly 390,000 compounds. About 2,200 (0.56%) were called active. The inconclusive results got no clear call from the source; some entries with a clear call stand among them for comparison. The call rests on the fitted dose curve; in most records, active means well fitted inhibition curve with a large enough effect; inconclusive means small, poorly fitted or top-dose-only effect; inactive means no such curve, though single readings can be large or run the other way. Potencies of inconclusive entries are doubtful fits and often do not repeat.

target: Chromobox protein homolog 1 (Homo sapiens) (UniProt P83916); test: HTS for Inhibitors of HP1-beta Chromodomain Interactions with Methylated Histone Tails; details: AlphaScreen HP1-beta / biotin-H3K9me3 peptide binding; series mostly up to 114 µM; further: nearly all actives have a fitted effect of over 70% in size
Outline: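 Compound inhibition of the preformed complex between 50 nM HP1-beta and 50 nM biotinylated H3K9me3 peptide was read by AlphaScreen. Buffer was PBS pH 7.4 with 0.01% Tween-20. Incubations ran 30 min at room temperature, with 10 ug/mL donor/acceptor beads.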
Potency means the concentration at half of the fitted maximal effect; tags describe the fitted curve by direction and shape.

UniProt P83916, sequence (P83916 whole entry, looked up): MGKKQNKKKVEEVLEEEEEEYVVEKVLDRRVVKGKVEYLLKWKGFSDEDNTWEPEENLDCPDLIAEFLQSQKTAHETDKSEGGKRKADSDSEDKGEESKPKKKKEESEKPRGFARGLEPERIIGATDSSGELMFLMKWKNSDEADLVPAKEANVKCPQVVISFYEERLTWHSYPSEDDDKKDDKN

SMILES	Potency
CCN=c1scc(-c2ccco2)n1/N=C/c1ccc(O)cc1	inconclusive: 15.8 µM [inhibitor, partial curve, poor fit]
COc1ccc(S(=O)(=O)N2CCOCC2)cc1C(=O)Nc1ccc(N2CCCCCC2)cc1	inconclusive: 8.91 µM [inhibitor, full curve]
O=C(O)C1CCCCC1C(=O)NC1C2CC3CC(C2)CC1C3 (stereo unspecified)	inactive
N/C(=N\OS(=O)(=O)c1ccc2ccccc2c1)c1ccncc1	inconclusive: 11.2 µM [inhibitor, partial curve]
Cn1nnnc1SCC(=O)NC(=O)Cc1ccccc1	inconclusive: 8.91 µM [inhibitor, single point]
CC1=CC(C)(C)n2c(O)c(N=N)c3c(C)ccc1c32	inactive
COc1ccccc1C(C)Nc1ccc(S(=O)(=O)N2CCN(C)CC2)cc1[N+](=O)[O-] (stereo unspecified)	inconclusive: 14.1 µM [inhibitor, partial curve, poor fit]
CCCOC(=O)c1cc(-c2ccc(/C=C3/C(=O)N(C)C(=O)C(C#N)=C3C)o2)ccc1Cl	inconclusive: 25.1 µM [inhibitor, single point]
COC1=CC(=O)C=C(OC)C1=O	inconclusive: 5.01 µM [inhibitor, full curve]
Cn1c(=O)n(C)c2cc(N3CCOCC3)c(NS(=O)(=O)c3cccc(C#N)c3)cc21	inconclusive: 44.7 µM [inhibitor, partial curve]
Cc1ccc(NC(=O)CN2C(=O)S/C(=C/c3ccc(-c4cccc(C(=O)O)c4)o3)C2=O)cc1	inconclusive: 50.1 µM [inhibitor, partial curve]
CCOC(=O)c1cc(-c2ccc(C)cc2)n(CCC(=O)NC(C)CC)c1C (stereo unspecified)	inconclusive: 25.1 µM [inhibitor, single point]
Cc1ccc(CN2CCN(CC3CC4C=CC3C4)CC2)cc1 (stereo unspecified)	inconclusive: 14.1 µM [inhibitor, full curve, poor fit]
C/C(N)=C(/C#N)C(=O)COC(=O)C1Cc2ccccc2CN1S(C)(=O)=O (stereo unspecified)	inconclusive: 79.4 µM [inhibitor, partial curve, poor fit]
COc1cc(C2C(C#N)=C(N)N(c3ccc(F)cc3)C3=C2S(=O)(=O)CC3)ccc1O (stereo unspecified)	inconclusive: 50.1 µM [inhibitor, partial curve]
COc1cc(CNCCc2c[nH]c3ccccc23)ccc1OCc1ccccc1F	inconclusive: 35.5 µM [inhibitor, single point]
CCn1cc(CNC(=O)NC2CCCCC2)c(C)n1	inactive
O=S1(=O)Nc2c(cc(Cl)c3ccc(Cl)nc23)-c2ccccc21	inconclusive: 31.6 µM [inhibitor, full curve]
c1ccc(-c2nc3cnccn3c2Nc2ccc3c(c2)OCCO3)cc1	inconclusive: 20 µM [inhibitor, full curve, poor fit]
Cc1ccccc1/C=C/C(=O)c1ccc([N+](=O)[O-])o1	inconclusive: 17.8 µM [inhibitor, full curve]
CCCCN(C(=O)c1cccc(-n2cccc2)c1)c1c(N)n(CCCC)c(=O)[nH]c1=O	inconclusive: 14.1 µM [inhibitor, partial curve, poor fit]
O=C1CNC(=S)N1CCc1ccc(O)c(O)c1	inactive

SMILES	Potency
CCN(Cc1ccncc1)Cc1ccc(Br)cc1	inconclusive: 15.8 µM [inhibitor, partial curve, poor fit]
CSc1ccccc1NC(=O)CN(C)Cc1ccc(Br)cc1	inactive
Cn1c(=O)c2[nH]c(=S)n(Cc3ccccc3)c2n(C)c1=O	inconclusive: 79.4 µM [inhibitor, partial curve]
COc1cc(/C=C/C(=O)Nc2nnc(CC(C)(C)C)s2)cc(OC)c1OC	inconclusive: 10 µM [inhibitor, full curve]
CC(C)c1ccc(Nc2c(-c3ccccn3)nc3ccccn23)cc1	inconclusive: 39.8 µM [inhibitor, partial curve]
CCOc1ccc(NC(=S)Nc2cccnc2)cc1	inactive
CC(C)(C)OC(=O)NCCCC[C@H](NC(=O)c1[nH]cnc1C(=O)Nc1ccc(Cl)cc1)C(=O)OC(C)(C)C	inactive
Cc1ccc(CCNC(=O)c2ccc(Nc3nc4ccccc4n4nnnc34)cc2)cc1	inactive
CCOC(=O)Cn1c(CN2CCN(C(=O)c3ccco3)CC2)nc2c1c(=O)n(C)c(=O)n2C	inactive
FC(F)(F)c1ccccc1CNCc1ccc2c(c1)OCO2	inconclusive: 56.2 µM [inhibitor, partial curve, poor fit]
O=C(NCCO)c1ccc2nc(-c3ccco3)c(-c3ccco3)nc2c1	active: 44.7 µM
Nc1ccc(C(=O)N/N=C\c2cc(N=Nc3cccc4ccccc34)ccc2O)cc1	inconclusive: 12.6 µM [inhibitor, partial curve, poor fit]
NCCc1c(C(=O)O)[nH]c2ccc([N+](=O)[O-])cc12	inactive
COc1cc(C)ccc1OCCCCN1CC(C)OC(C)C1 (stereo unspecified)	inconclusive: 8.91 µM [inhibitor, full curve]
O=C1C(Cl)=C(Nc2ccc(O)cc2)C(=O)c2ccccc21	inconclusive: 12.6 µM [inhibitor, partial curve, poor fit]
CCCN1C(=O)S/C(=C\c2ccc(N3CCOCC3)o2)C1=O	inconclusive: 50.1 µM [inhibitor, partial curve, poor fit]
Cc1cc(C(=O)COc2ccc(C#N)cc2)c(C)n1-c1ccc2c(c1)OCO2	inactive
O=[N+]([O-])c1ccc2c(c1Nc1ccccc1)=NC1(CCCCC1)N=2	inconclusive: 6.31 µM [inhibitor, full curve, poor fit]
CCN1CCCc2cc(CN(CCN3CCOCC3)C(=O)Nc3ccc(C)c(C)c3)ccc21	inconclusive: 50.1 µM [inhibitor, single point]
Cc1cc(C)cc(OCC(=O)Nc2nc(-c3cccnc3)cs2)c1	inconclusive: 35.5 µM [inhibitor, partial curve]
CC(=O)c1cc(C#N)c(N2CC(C)OC(C)C2)nc1C (stereo unspecified)	inconclusive: 89.1 µM [inhibitor, single point]
Cc1ccc(NC2CCCN(C(=O)c3ccc4nccnc4c3)C2)cc1C (stereo unspecified)	inactive

SMILES	Potency
CCNS(=O)(=O)c1ccc(NC(=O)c2ccccc2)cc1	inactive
O=C(NC1CCS(=O)(=O)C1)c1ccccc1Cl (stereo unspecified)	inactive
COC(=O)Cc1sc(-c2ccccn2)nc1-c1ccccc1	inconclusive: 10 µM [inhibitor, full curve, poor fit]
COc1cc2c(cc1NC(=S)Nc1cccc(C(F)(F)F)c1)oc1ccccc12	inactive
COCc1cc(C)nc2sc(C(=O)Nc3ccc(OC(F)(F)F)cc3)c(N)c12	inactive
Cc1cc(/C=N/Nc2nc(N3CCOCC3)nc(N3CCOCC3)n2)c(C)n1-c1ccccc1	inconclusive: 50.1 µM [inhibitor, partial curve, poor fit]
CCCN(Cc1cc2cc(OC)ccc2[nH]c1=O)C(=O)c1ccco1	inconclusive: 89.1 µM [inhibitor, single point]
O=C1c2cccc3cccc(c23)C(=O)N1CC1CCN(CC(O)COc2ccc3ccccc3c2)CC1 (stereo unspecified)	inconclusive: 20 µM [inhibitor, single point]
Cc1ccc(NC(=O)CN(C)CC(=O)Nc2ccc(F)c(Cl)c2)cc1	inconclusive: 15.8 µM [inhibitor, full curve, poor fit]
C=CCOc1ccc(C=NNc2ccc(S(=O)(=O)Nc3ccccc3C(=O)O)cc2[N+](=O)[O-])cc1OC	inconclusive: 15.8 µM [inhibitor, full curve, poor fit]
Cc1noc(/C=C/c2ccc(-c3ccccc3Cl)o2)c1[N+](=O)[O-]	inconclusive: 50.1 µM [inhibitor, partial curve, poor fit]
COc1ccc(OC)c(Nc2nc(-c3sc(NC(=O)CC(C)C)nc3C)cs2)c1	inconclusive: 35.5 µM [inhibitor, full curve]
COC(=O)c1cccc(Nc2c(-c3ccc(OC)cc3)nc3nc[nH]n23)c1	inconclusive: 89.1 µM [inhibitor, partial curve, poor fit]
CC(C(=O)NCc1cccnc1)c1ccc([N+](=O)[O-])cc1 (stereo unspecified)	inactive
CC1(C)Cc2ccccc2C(/C(=N\Nc2cccc(Cl)c2)C(N)=O)=N1	inconclusive: 50.1 µM [inhibitor, partial curve]
O=C1ON=C(c2ccccc2)/C1=C/c1ccc(OS(=O)(=O)c2ccccc2)cc1	inconclusive: 50.1 µM [inhibitor, partial curve]
CCOC(=O)c1ccc(NC(=O)Cn2c(-c3nonc3N)nc3ccccc32)cc1	inconclusive: 5.62 µM [inhibitor, full curve]
CCc1cc(-c2n[nH]c(=S)n2CC)cs1	inactive
Cc1cccc(CN2CCN(Cc3ccco3)CC2)c1	inconclusive: 15.8 µM [inhibitor, partial curve, poor fit]
CN(C)c1cc(NC(=O)CN2CCCC2)c2ccccc2n1	inconclusive: 22.4 µM [inhibitor, single point]
Cc1ccc(Nc2c(-c3ccsc3)nc3cccc(C)n23)cc1	inconclusive: 14.1 µM [inhibitor, full curve] and inconclusive: 20 µM [inhibitor, partial curve, poor fit]
O=C(/C=C/c1ccccc1)NC(NC(=S)Nc1ccc(Cl)cc1Cl)C(Cl)(Cl)Cl (stereo unspecified)	inconclusive: 10 µM [inhibitor, full curve]
